In article PMC4336329 (PLoS ONE, 2015):
Hit rate of the full screen: of about 310,000 compounds, about 14,000 (4.5%) showed an effect of 50% or more. Effects have a minus sign here. The list shows a part of the results.

Molecular target: human ether-à-go-go-related gene (hERG) potassium channel (human, UniProt Q12809)
Experiment: primary screen, population patch clamp on CHO cells stably expressing hERG
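Note: peak tail current of the secondary pulse compared with the same well before compound.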

Chain of human ether-à-go-go-related gene (hERG) potassium channel (Q12809 whole entry, looked up): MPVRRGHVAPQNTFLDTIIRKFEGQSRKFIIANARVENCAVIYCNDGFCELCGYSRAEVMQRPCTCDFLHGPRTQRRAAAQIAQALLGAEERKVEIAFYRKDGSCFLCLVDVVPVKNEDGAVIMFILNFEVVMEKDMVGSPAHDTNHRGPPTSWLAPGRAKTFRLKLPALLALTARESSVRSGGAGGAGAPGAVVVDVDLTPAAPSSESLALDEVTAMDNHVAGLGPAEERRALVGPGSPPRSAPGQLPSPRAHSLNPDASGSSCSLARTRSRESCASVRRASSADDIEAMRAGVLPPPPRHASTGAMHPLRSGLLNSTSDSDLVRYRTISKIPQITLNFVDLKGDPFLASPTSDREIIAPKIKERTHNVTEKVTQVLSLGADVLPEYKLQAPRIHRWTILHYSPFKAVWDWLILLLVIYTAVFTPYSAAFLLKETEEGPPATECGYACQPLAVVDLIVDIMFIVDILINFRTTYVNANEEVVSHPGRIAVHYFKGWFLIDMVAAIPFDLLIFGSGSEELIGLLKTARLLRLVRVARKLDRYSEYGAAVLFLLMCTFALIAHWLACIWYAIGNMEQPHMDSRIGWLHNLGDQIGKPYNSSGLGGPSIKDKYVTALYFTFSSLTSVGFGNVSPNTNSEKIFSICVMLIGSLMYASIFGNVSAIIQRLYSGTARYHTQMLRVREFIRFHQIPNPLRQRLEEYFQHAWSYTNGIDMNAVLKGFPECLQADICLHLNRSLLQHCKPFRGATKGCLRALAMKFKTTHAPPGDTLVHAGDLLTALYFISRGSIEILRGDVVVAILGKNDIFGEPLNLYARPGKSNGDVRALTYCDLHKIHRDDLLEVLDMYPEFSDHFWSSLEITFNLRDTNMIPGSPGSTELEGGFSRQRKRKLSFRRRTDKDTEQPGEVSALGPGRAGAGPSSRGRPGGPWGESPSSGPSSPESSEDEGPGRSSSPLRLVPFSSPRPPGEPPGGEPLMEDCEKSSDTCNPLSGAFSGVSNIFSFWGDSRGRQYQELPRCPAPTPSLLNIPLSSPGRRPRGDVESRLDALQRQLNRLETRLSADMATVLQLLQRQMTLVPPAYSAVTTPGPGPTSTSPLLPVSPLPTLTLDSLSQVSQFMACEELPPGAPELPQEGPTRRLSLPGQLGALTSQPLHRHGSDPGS

| SMILES | hERG current change (%, negative = inhibition) at 10uM [%] |
| --- | --- |
| O=C(CCc1c[nH]c2ccccc12)N/N=C/c1ccc2c(c1)OCO2 | 6.33 |
| O=C(O)CCC(=O)NCCC1=c2ccccc2=N/C1=C\c1c(O)n(Cc2ccc(F)cc2)c(=S)[nH]c1=O | 5.66 |
| CCOc1ccc(C(=O)Nc2c(C(N)=O)oc3ccccc23)cc1 | 11.9 |
| CC(=O)c1c(COC(=O)c2cccnc2)nc2ccccc2[n+]1[O-] | 8.18 |
| COC(=O)c1cccc(S(=O)(=O)N(Cc2ccco2)Cc2cc3ccc(OC)cc3[nH]c2=O)c1 | 7.12 |
| Cn1c(N)c(C(=O)COC(=O)C2CCCN2C(=O)c2cccs2)c(=O)n(C)c1=O (stereo not shown) | 0.553 |
| COc1ccc(-c2nc(-c3cccc(C(F)(F)F)c3)no2)cc1OC | -2.54 |
| CCCCn1c(N)c(N(CCOC)C(=O)c2cnc(C)cn2)c(=O)[nH]c1=O | 3.09 |
| O=c1cc(Cc2ccccc2)[nH]c(=S)[nH]1 | 12.7 |
| COC(=O)NCc1cc2cc(Cl)ccc2[nH]1 | -18 |
| Cc1ccc(NC(=O)C2CCN(C(=O)c3ccccc3C)CC2)nc1 | -10.9 |
| O=C(Nc1cc(C(=O)N2CCCC2)ccc1N1CCCC1)C1CC1 | -12.9 |
| Cc1nc(C)c(-c2csc(NCc3ccccc3)n2)s1 | -18.6 |
| NS(=O)(=O)c1cccc(NC(=O)COC(=O)c2cc(-c3ccc(Cl)cc3)nc3ccccc23)c1 | 13.6 |
| Cc1cccc(C(=O)OCC(=O)NC2CCCCCCC2)c1 | 8.28 |
| Cc1ccc2cc(CN(CCN(C)C)C(=S)Nc3ccccc3)c(=O)[nH]c2c1C | -49.9 |
| CCCOc1ccc(/C=N/NC(=O)C2CC2)c(OCCC)c1 | 17.8 |
| CCCN1CCN(C(c2cc3cc(OCC)ccc3[nH]c2=O)c2nnnn2C2CCCCC2)CC1 (stereo not shown) | -46.4 |
| CCOc1ccc(C(CC(=O)O)n2cnnn2)cc1 (stereo not shown) | 8.35 |
| CN1CCC(OC(=O)COc2ccc(Cl)cc2Cl)CC1.Cl | -37.6 |
| CC1=NN(C(=O)c2ccccc2-n2cccc2)C(O)(C(F)(F)F)C1 (stereo not shown) | 39.8 |
| CN1C(=O)c2ccccc2C(C(=O)O)C1c1cccc(F)c1 (stereo not shown) | 0.483 |

| SMILES | hERG current change (%, negative = inhibition) at 10uM [%] |
| --- | --- |
| C[C@H]1C[C@H]2[C@@H]3CCC4=CC(=O)C=C[C@]4(C)[C@@]3(Cl)[C@@H](O)C[C@]2(C)[C@@]1(O)C(=O)CO | 6.63 |
| COc1cccc(N(CC(=O)NC2CCCC2)C(=O)CCC(=O)Nc2cc(C)on2)c1 | -16.4 |
| CCC1Sc2ccc(S(=O)(=O)CCC(=O)Nc3ccc(NC(C)=O)cc3)cc2NC1=O (stereo not shown) | 19 |
| O=c1[nH]n2c(=O)c3c([nH]c2c1N=Nc1cccc(Cl)c1)CCC3 | 9.78 |
| CNC(=O)/C(C#N)=C\c1ccc(CNS(=O)(=O)c2ccc(Cl)cc2)o1 | 18.4 |
| CCOC(=O)c1ccc(Cl)c(S(=O)(=O)N2CCCC2)c1 | 23.8 |
| COc1ccc(N2C(=O)C(Cl)=C(Nc3ccccc3O)C2=O)cc1 | 7.15 |
| COc1ccc(Cl)cc1NC(=O)C/C(C)=N/NC(=O)c1ccc(O)cc1 | -1.35 |
| COc1ccc(CCCNC(=O)CC#N)cc1OC | 5.89 |
| NCC/C=C1/c2ccccc2CSc2ccccc21.O=C(O)/C=C\C(=O)O | -3.76 |
| O=C1NC(=O)C(=Cc2coc3ccccc3c2=O)C(=O)N1 | 4.1 |
| COc1cc(/C=N/NC(=O)COc2c(C)cc([N+](=O)[O-])cc2C)ccc1OC(=O)c1ccccc1 | 17.2 |
| O=C1CCCN2N=C(SCC(=O)Nc3ccc(Br)cc3)SC2=N1 | 26.2 |
| CCOC(=O)COc1ccc2c(c1)c(C(C)=O)c(C)n2-c1ccc(OC)cc1 | -24.7 |
| O=C(NCc1cccnc1)c1cc(S(=O)(=O)N2CCOCC2)c(Cl)cc1Cl | -0.858 |
| Cc1ccc(S(=O)(=O)c2cc3c(=O)n4ccccc4nc3n(C)c2=N)cc1C | -2.47 |
| CCOC(=O)C(NCCc1ccccc1F)(NC(C)=O)C(F)(F)F (stereo not shown) | 8.38 |
| CN=C(Nc1cc(C)nn1CCC#N)c1ccccc1 | 17.2 |
| COc1cccc(NC(=O)Nc2cccn(Cc3ccccc3)c2=O)c1 | -13.7 |
| O=C(c1cccs1)N1CCCC(c2nc(-c3ccc(F)cc3)no2)C1 (stereo not shown) | -51.7 |
| CCSc1nc2c(c(=O)[nH]c(=O)n2C)n1CC(O)COc1ccccc1 (stereo not shown) | 14.3 |
